Test results as given in PubChem BioAssay AID624296 (National Center for Advancing Translational Sciences (NCATS), 2012).
In all, about 350,000 compounds went through this assay and about 9,900 (2.8%) were called active. Inconclusive means that the source gave no clear call. Such entries were picked first, then a sample of the others. The call rests on the fitted dose curve; in most records, active means well fitted activation curve with a large enough effect; inconclusive means small, poorly fitted or top-dose-only effect; inactive means no such curve, though single readings can be large or run the other way. Potencies of inconclusive entries are left out as doubtful fits.

Assay: A quantitative high throughput screen for small molecules that induce DNA re-replication in MCF 10a normal breast cells. Further: nearly all actives have a fitted effect of over 50% in size.
Conditions: MCF 10A DNA re-replication, Hoechst nuclear intensity, 48 h; series mostly up to 46.1 µM
Potency means the concentration at half of the fitted maximal effect; tags describe the fitted curve by direction and shape.

Row | Compound | Potency
1 | CC(=O)c1cc(CN2CCCCC2)cc(OC(C)C)c1 | inconclusive [activator, partial curve, poor fit]
2 | CC(=O)c1ccc(S(=O)(=O)N(Cc2cc3cc4c(cc3[nH]c2=O)OCCO4)CC2CCCO2)cc1 (stereo not given) | inconclusive [activator, single point]
3 | O=C(c1cccc([N+](=O)[O-])c1)N1CCCC(C(=O)N2CCc3ccccc3C2)C1 (stereo not given) | inactive
4 | CCC(C)n1c(=S)[nH]c2c(sc3ccc([N+](=O)[O-])cc32)c1=O (stereo not given) | inconclusive [activator, full curve, poor fit]
5 | O=C(c1ccc2c(c1)OCCO2)N1CCN(S(=O)(=O)c2c(F)cccc2F)CC1 | inconclusive [activator, full curve, poor fit]
6 | Cc1ccc(-c2nnc(SCC(=O)NC3CC3)o2)cc1 | inactive
7 | COc1ccc(N2CCN(C(=O)CSc3nnc4c(C)cc5c(C)cc(C)cc5n34)CC2)cc1 | inactive
8 | C=CCn1c(-c2ccccc2)c[nH]c1=S | inactive
9 | O=C(CSc1nnc(CNC(=O)c2c(F)cccc2Cl)o1)Nc1ccccc1 | inconclusive [activator, single point]
10 | Cc1nc(NC(=O)CSc2nnnn2C)sc1C | inactive
11 | Nc1c(-c2cccc(Cl)c2)cnn1-c1cccc(C(F)(F)F)c1 | inactive
12 | CCC(C)Sc1cc(C(F)(F)F)c(C(=O)Nc2ccc(Cl)cc2)cn1 (stereo not given) | inconclusive [activator, partial curve]
13 | CC(C)CC(=O)N[C@H](C(=O)N[C@H](C(=O)N[C@@H](CC(C)C)[C@@H](O)CC(=O)N[C@@H](C)C(=O)N[C@@H](CC(C)C)[C@@H](O)CC(=O)O)C(C)C)C(C)C | inconclusive [activator, partial curve, poor fit]
14 | CN(c1ccccc1)S(=O)(=O)c1ccc(C(=O)Nc2nnc(C3=COCCO3)o2)cc1 | inactive
15 | CCN(CC)C(=O)/C(=C\c1cccc([N+](=O)[O-])c1)NC(=O)c1ccco1 | inactive
16 | Clc1ccc2[nH]cc(-c3nnnn3-c3ccccc3)c2c1 | inactive
17 | O=C1CN(c2nnnn2-c2ccccc2)CCN1 | inconclusive [activator, full curve, poor fit]
18 | Cc1cc(OC(C)C(=O)N2CCN(c3ccc(F)cc3)CC2)c2c(C)cc(=O)oc2c1 (stereo not given) | inactive
19 | O=[N+]([O-])c1cnc2nc(-c3ccncc3)nn2c1O | inconclusive [activator, single point]
20 | CC(C)CNC(=O)C(=O)NCC1OCCCN1S(=O)(=O)c1ccc2c(c1)OCCO2 (stereo not given) | inactive
21 | N#Cc1ccc(-c2cccnc2)nc1SCC(=O)c1ccccc1 | inconclusive [activator, partial curve]
22 | CCN(CC)C1CC(=O)N(c2cccc(Cl)c2)C1=O (stereo not given) | inconclusive [activator, single point]
23 | N#CCC(=O)c1ccccc1Oc1ccc(Cl)cc1 | inconclusive [activator, single point]
24 | CCOC(=O)c1c(NC(=O)c2c(-c3ccccc3)noc2C)sc(C)c1-c1ccccc1 | inconclusive [activator, single point]

Row | Compound | Potency
25 | CCCCOc1ccc(C(=O)NCC(=O)N2CCN(Cc3ccc4c(c3)OCO4)CC2)cc1 | inconclusive [activator, partial curve, poor fit]
26 | NS(=O)(=O)c1ccc(NC(=S)N2CCN(S(=O)(=O)c3ccc(F)cc3)CC2)cc1 | inconclusive [activator, single point]
27 | CCOc1ccc(NC(=O)/C(C#N)=C/c2ccc(N3CCCC3)c(C)c2)cc1 | inconclusive [activator, partial curve, poor fit]
28 | Cc1cc(OCCCCn2ccnc2)cc(C)c1Cl | inconclusive [activator, partial curve, poor fit]
29 | O=c1c2ccccc2sc2nc(C3CCCCC3)n(Cc3ccco3)c(=O)c12 | inconclusive [activator, partial curve, poor fit]
30 | CCCCOC(=O)c1sc2nc(C)cc(C)c2c1N | inconclusive [activator, partial curve, poor fit]
31 | CCC1(CC)N=C(c2ccccc2)C(=S)N1 | inactive
32 | COc1cc(NC(=O)c2cc(-c3ccccc3)on2)cc(OC)c1OC | inconclusive [activator, partial curve]
33 | CC(C)CC(=O)/C=C/n1c(=S)oc2ccccc21 | active: 3.66 µM
34 | CC(=O)Oc1ccc(C(=O)Nc2ccccc2C(=O)Nc2ccc(C(=O)O)cc2)cc1 | inactive
35 | CCCCN1C(=O)N(c2ccccc2Cl)C(C)(O)CC1(C)C (stereo not given) | inactive
36 | O=C(CCc1ccccc1)N=C1SC2CS(=O)(=O)CC2N1c1ccccc1 (stereo not given) | inconclusive [activator, partial curve, poor fit]
37 | COc1ccccc1NC(=O)CN1CC(=O)Nc2ccccc21 | inactive
38 | COc1ccc2[nH]c(=O)c(CN(Cc3cccnc3)C(=S)NCC3CCCO3)cc2c1 (stereo not given) | inactive
39 | CCC(=O)N1N=C(c2c(-c3ccccc3)c3cc(Cl)ccc3[nH]c2=O)CC1c1ccco1 (stereo not given) | inconclusive [activator, single point]
40 | O=C(Nc1ccc(C(=O)N2CCC(O)(c3ccc(Cl)c(C(F)(F)F)c3)CC2)cc1)c1ccc(Br)o1 | inactive
41 | COc1ccc(OC(C)C(=O)Nc2ccccc2C(F)(F)F)cc1 (stereo not given) | inconclusive [activator, single point]
42 | Fc1ccc(N2CCN(/C=C/c3nnnn3-c3ccccc3)CC2)cc1 | inconclusive [activator, single point]
43 | COc1cc(/C=N/NC(=O)c2sc3nc(C)cc(C)c3c2N)ccc1O | active: 14.6 µM
44 | O=c1cc[nH]c(=S)[nH]1 | inactive
45 | O=C(CSc1nnc(CNC(=O)c2ccco2)o1)Nc1nc2ccccc2s1 | inconclusive [activator, single point]
46 | Cc1ccc(S(=O)(=O)N(C)c2ccc(OCC(=O)Nc3ccc(C(=O)N(C)C)cc3)cc2)cc1C | inactive
47 | CC(C)C[C@H](NC(=O)c1nc[nH]c1C(=O)NCCNC(=O)OC(C)(C)C)C(=O)CNCCNC(=O)c1[nH]cnc1C(=O)N[C@@H](C)C(=O)OC(C)(C)C | inconclusive [activator, single point]
48 | COc1ccc(Cn2nnnc2CN2CCC(O)(c3ccc(F)cc3)CC2)cc1 | inactive

Row | Compound | Potency
49 | Brc1ccc(-c2nc3ncccn3c2NC2CCCCC2)o1 | inconclusive [activator, single point]
50 | COc1ccc(C(C#N)(CCC#N)CCC#N)cc1OC | inconclusive [activator, partial curve, poor fit]
51 | O=C(COC(=O)c1cc(S(=O)(=O)N2CCCCC2)ccc1N1CCOCC1)NCCc1ccc(F)cc1 | inactive
52 | CCOc1ccc(S(=O)(=O)N2CCCCC2)cc1NC(=O)CN1CCCC1c1cccs1 (stereo not given) | inconclusive [activator, single point]
53 | CCn1c(=O)cc(OCC(=O)NCCCN2CC(C)CC(C)C2)c2ccccc21 (stereo not given) | inconclusive [activator, partial curve, poor fit]
54 | CCCN(CC(=O)Nc1ccccc1C)C(=O)CCl | inconclusive [activator, single point]
55 | Cc1ccc(OC(=O)CCC(=O)N2CCc3ccccc32)cc1 | inconclusive [activator, full curve, poor fit]
56 | Cc1ccc(NC(=O)c2cncc(Br)c2)nc1 | inconclusive [activator, partial curve, poor fit]
57 | Cc1ccc2nc(SCC(=O)NC3CC3)[nH]c2c1 | inconclusive [activator, single point]
58 | O=S(=O)(c1ccc(Br)cc1)N1CCCc2ccccc21 | inconclusive [activator, single point]
59 | CCCCn1c(-c2ccco2)n[nH]c1=S | inactive
60 | CSc1nc(=NC(C)=O)ss1 | inactive
61 | Cn1cccc1CC(=O)NNC(=S)Nc1ccc(Cl)cc1 | inactive
62 | Cc1nn(-c2ccccc2)c(Cl)c1C(=O)NCC(C)c1ccccc1 (stereo not given) | inconclusive [activator, full curve]
63 | CCCC/C(O)=C1\C(=O)CC(C)(C)CC1=Nc1ccccc1OC | inconclusive [activator, full curve, poor fit]
64 | O=C(C1CCN(S(=O)(=O)c2cccc3cccnc23)CC1)N1CCN(c2ccc(Cl)cc2)CC1 | inactive
65 | CCOC(=O)C1(C)NC(c2cccc(C)c2)C2C(=O)N(c3ccccc3)C(=O)C21 (stereo not given) | inactive
66 | O=C(NNC(=S)Nc1cccc2ccccc12)c1cccc(Br)c1 | inconclusive [activator, single point]
67 | O=c1c2cc(Cl)cc(Cl)c2nc2n1CCC2 | inconclusive [activator, partial curve, poor fit]
68 | O=C(N/N=C/c1c(O)ccc2ccccc12)c1ccc(Br)o1 | inconclusive [activator, single point]
69 | COC(=O)c1cn(NC(=O)Cc2ccc(Cl)cc2)c(=O)c2ccccc12 | inconclusive [activator, single point]
70 | Cc1ccc(-c2c(C#N)c(N)nc3c2CCCCC3)o1 | inconclusive [activator, partial curve, poor fit]
